Reference: PubChem BioAssay AID463173 (ICCB-Longwood Screening Facility, Harvard Medical School, 2010)
The whole screen tested about 52,000 compounds, of which about 4,300 (8.3%) were called active. Cut-off read from the data, not from the text of the source: active = survival mostly below about 52% (no sharp cut-off); inactive = mostly above about 56%. This is one part of the list.

Each compound was assayed on DeltatarO mutant (assay: S. aureus survival, RN4220 and DeltatarO strains – OD600, teichoic acid synthesis inhibitors, primary screen (AID 463173)). Conditions: S. aureus RN4220 wild type/DeltatarO growth, OD600, 18 h, active compounds read low, screened at 18.75 µg/mL (by protocol).

Structure (SMILES)	survival
COc1cccc2cc(C(=O)Nc3ccc(C)cc3)c(=O)oc12	inactive: 91%
CCOC(=O)c1ccc(NC(=O)C2=C(C)C(=O)OC23CCN(C(C)C)CC3)cc1	inactive: 70%
Cc1ccc2c(=O)cc(C(=O)Nc3sc4c(c3C(=O)NCc3cccnc3)CCCC4)oc2c1	inactive: 76%
Cc1nc(-c2ccc(S(=O)(=O)NCc3ccccc3Cl)cc2)co1	inactive: 85%
CCCCN(CCCC)C(=O)c1c[nH]c2ccc(S(=O)(=O)Nc3cccc(Cl)c3C)cc2c1=O	inactive: 101%
CCCN1C(C(=O)c2ccccc2)=C(OC(=O)COc2ccc(C)cc2)c2ccccc2S1(=O)=O	active: 19%
COC(=O)CN1C(C(=O)c2ccccc2)=C(OC(=O)c2ccccc2)c2ccccc2S1(=O)=O	inactive: 49%
Cc1ccc(NC(=O)CCCn2nc(C)c3c(C)n(-c4ccccc4)nc3c2=O)c(Cl)c1	inactive: 89%
Cc1ccc(NC(=O)C2CCCN(S(=O)(=O)c3cccs3)C2)c(C)c1 (stereo not drawn)	inactive: 81%
O=C(Nc1c2c(nn1-c1ccc(Cl)cc1)CS(=O)(=O)C2)c1ccc(Br)cc1	active: 52%
COc1cccc(NC(=O)N(Cc2nc3ccccc3c(=O)[nH]2)C2CCCCC2)c1	inactive: 83%
CCCSCCCNC(=O)Cn1c(-c2cccs2)cc2ccccc21	inactive: 77%
CCOC(=O)c1cc(NC(=O)c2ccc(F)cc2)c(=O)n2c1oc1ccc(Cl)cc12	inactive: 127%
Cc1cc(O)c(CN2CCN(c3ccccc3)CC2)c2oc(=O)cc(C)c12	inactive: 51%
Cn1c(=O)sc2cc(NS(=O)(=O)c3ccc(C(C)(C)C)cc3)ccc21	inactive: 92%
Cc1ccc(S(=O)(=O)c2nc(-c3cccs3)oc2N2CCC(C)CC2)cc1	active: 8%
CC(=O)N1CCc2c(sc3c2c(=O)n(-c2ccccc2C)c(=O)n3CC(=O)Nc2ccccc2)C1	inactive: 69%
Cc1c(C(=O)Nc2c(F)cccc2F)sc2ncn(Cc3ccccc3F)c(=O)c12	inactive: 76%
COc1ccc(C(=O)NCc2cn3ccc(C)cc3n2)cc1	inactive: 96%
CN(C)C(=O)c1ccc(S(=O)(=O)NCc2ccc(Cl)cc2)s1	inactive: 119%
CCCCN(CC)C(=O)CSc1nc2c(sc3ccccc32)c(=O)n1CCc1ccccc1	inactive: 119%
CCOc1ccc2[nH]c(=O)c(CN(C(=O)Nc3ccccc3)C3CC3)cc2c1	inactive: 92%

Structure (SMILES)	survival
CCc1ccccc1NC(=O)Cn1c(=O)n(-c2ccc(C)cc2)c(=O)c2cc(OC)c(OC)cc21	inactive: 91%
COC(=O)c1scc(-c2ccc(C)cc2)c1S(=O)(=O)N1CCN(c2cccc(Cl)c2)CC1	inactive: 76%
CCN(CCCNC(=O)Cn1ncc2c([nH]c3ccccc32)c1=O)c1cccc(C)c1	inactive: 96%
CCc1ccccc1NC(=O)CN(c1cc(C(F)(F)F)ccc1Cl)S(=O)(=O)c1ccccc1	active: 44%
COc1cc(Nc2nc3c(S(=O)(=O)c4ccccc4)nnn3c3ccc(Cl)cc23)cc(OC)c1	inactive: 72%
COc1ccccc1Nc1cc(C(=O)NCCCN(C)C2CCCCC2)c2ccccc2n1	inactive: 118%
O=C(COc1ccc(Cl)cc1)OCc1cc(=O)n2nc(C3CCCCC3)sc2n1	inactive: 88%
Cc1ccc2c(c1)N(C(=O)CCC(=O)NCc1ccccc1F)CC(C)O2 (stereo not drawn)	inactive: 104%
Cc1cc(C)cc(NC(=O)[C@H]2O[C@@H]3OC(C)(C)O[C@@H]3[C@H]3OC(C)(C)O[C@H]32)c1	inactive: 99%
CCOC(=O)c1ccc2c(c1)N(Cc1cc(C)ccc1C)C(=O)c1ccccc1S2(=O)=O	inactive: 85%
CC(C)CC(=O)NC1CC(=O)N(c2ccc3c(c2)OCCO3)C1 (stereo not drawn)	inactive: 97%
CCCCNC(=O)CSc1nc2cc3c(cc2c(=O)n1CCCC(=O)NCc1ccc(OC)cc1)OCO3	inactive: 61%
CN(Cc1ccccc1)c1nc2c(S(=O)(=O)c3cccc(Cl)c3)nnn2c2ccsc12	active: 36%
COc1cccc(C(=O)NC2CCCC2)c1	inactive: 75%
CCC1CN(S(=O)(=O)c2cc(-c3cc(C)no3)ccc2OC)c2cc(Cl)ccc2O1 (stereo not drawn)	inactive: 62%
COC(=O)c1ccccc1NC(=O)NCc1ccc2c(c1)CCN2C(=O)c1ccccc1	inactive: 77%
O=C1CN(C(=O)c2ccc(S(=O)(=O)N3CCCC3)cc2)C(c2ccc(F)cc2)c2cc(Br)ccc2N1 (stereo not drawn)	inactive: 177%
O=S(=O)(NCCc1csc2nc(-c3ccc(Cl)cc3)nn12)c1cccs1	inactive: 84%
Cc1ccc2c(c1)N(C(=O)N1CCC(C(=O)Nc3cccc(F)c3)CC1)CCO2	inactive: 74%
CC1CCN(C(=O)CN2CC(C)Sc3ccccc32)CC1 (stereo not drawn)	inactive: 72%
COc1ccc(-c2cn3nc(SCC(=O)Nc4cccc(C)c4C)ccc3n2)cc1	inactive: 80%
